{"source": "paper PMC4336329", "about": "(PLoS ONE, 2015)", "note": "Out of some 310,000 compounds screened, about 2,200 (0.71%) showed an effect of 50% or more. The effect is printed as a negative number. This is one part of the list.", "data": [{"target": "human ether-à-go-go-related gene (hERG) potassium channel (human, UniProt Q12809)", "sequence (Q12809 whole entry, looked up)": "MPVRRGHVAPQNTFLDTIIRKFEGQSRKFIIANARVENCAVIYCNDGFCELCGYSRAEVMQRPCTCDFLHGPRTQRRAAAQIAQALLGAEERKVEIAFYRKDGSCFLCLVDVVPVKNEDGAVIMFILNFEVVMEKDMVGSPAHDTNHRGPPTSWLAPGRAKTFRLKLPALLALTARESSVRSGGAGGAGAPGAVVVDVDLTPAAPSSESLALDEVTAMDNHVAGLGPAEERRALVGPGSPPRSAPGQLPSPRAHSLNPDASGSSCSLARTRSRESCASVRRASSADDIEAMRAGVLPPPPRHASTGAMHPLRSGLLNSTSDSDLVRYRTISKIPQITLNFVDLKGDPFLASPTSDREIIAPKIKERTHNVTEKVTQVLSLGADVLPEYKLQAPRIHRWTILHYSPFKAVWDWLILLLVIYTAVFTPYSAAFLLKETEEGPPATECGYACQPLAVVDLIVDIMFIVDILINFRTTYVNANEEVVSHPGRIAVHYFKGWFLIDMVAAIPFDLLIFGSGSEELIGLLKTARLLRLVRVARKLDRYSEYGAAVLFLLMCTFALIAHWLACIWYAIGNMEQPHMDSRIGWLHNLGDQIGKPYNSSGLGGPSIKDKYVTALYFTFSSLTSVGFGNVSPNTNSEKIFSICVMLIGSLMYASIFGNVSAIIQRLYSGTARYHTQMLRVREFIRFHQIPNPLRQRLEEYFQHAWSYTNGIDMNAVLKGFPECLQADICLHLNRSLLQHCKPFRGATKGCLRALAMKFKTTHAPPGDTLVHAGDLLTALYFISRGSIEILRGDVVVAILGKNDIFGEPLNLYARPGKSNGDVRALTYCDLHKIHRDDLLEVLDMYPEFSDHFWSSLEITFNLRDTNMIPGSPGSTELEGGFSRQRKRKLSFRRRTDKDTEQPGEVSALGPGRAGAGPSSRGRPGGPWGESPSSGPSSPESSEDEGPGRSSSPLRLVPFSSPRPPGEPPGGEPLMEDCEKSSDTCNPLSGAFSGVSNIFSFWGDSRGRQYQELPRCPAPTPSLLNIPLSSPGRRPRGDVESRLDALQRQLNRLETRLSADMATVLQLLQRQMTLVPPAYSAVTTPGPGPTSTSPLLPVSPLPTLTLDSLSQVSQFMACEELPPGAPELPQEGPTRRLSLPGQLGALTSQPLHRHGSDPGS", "experiment": "primary screen, population patch clamp on CHO cells stably expressing hERG", "units": {"hERG current change (%, negative = inhibition) at 1uM": "%"}, "values": [{"smiles": "COc1ccc(C2Nc3ccccc3C(=O)N2Cc2ccco2)cc1CN1C(=O)c2ccccc2C1=O", "note": "(stereo not drawn)", "hERG current change (%, negative = inhibition) at 1uM": 5.82}, {"smiles": "Cc1ccc2oc(C(=O)NCCCN3CCOCC3)c(C)c2c1", "hERG current change (%, negative = inhibition) at 1uM": -6.11}, {"smiles": "COc1ccc(CN(C)C(=O)c2cnc(OC)cc2C(F)(F)F)c(OC)c1", "hERG current change (%, negative = inhibition) at 1uM": -2.66}, {"smiles": "COc1ccc(CC(=O)NCc2ccc3c(c2)cc(C)n3C)cc1OC", "hERG current change (%, negative = inhibition) at 1uM": 7.58}, {"smiles": "CCCCOc1ccc(C(=O)Nc2ccc3c(c2)C(=O)NC3=O)cc1", "hERG current change (%, negative = inhibition) at 1uM": -4.89}, {"smiles": "Cc1cccnc1NC(=O)Nc1cccc2ccccc12", "hERG current change (%, negative = inhibition) at 1uM": 0.589}, {"smiles": "O=C(Nc1ccccc1C(=O)N/N=C/c1ccc(F)cc1)c1ccccc1Br", "hERG current change (%, negative = inhibition) at 1uM": -14.1}, {"smiles": "C#Cc1ccc([C@@H]2C=C(C(=O)OCC=C)O[C@H](OCCCCO)C2)cc1", "hERG current change (%, negative = inhibition) at 1uM": 12.2}, {"smiles": "O=C(Nc1cnn(Cc2ccc(F)cc2)c1)c1cnn2c(C(F)F)cc(-c3ccccc3)nc12", "hERG current change (%, negative = inhibition) at 1uM": 9.51}, {"smiles": "CC1S/C(=N/N=C/c2cccc([N+](=O)[O-])c2)NC1=O", "note": "(stereo not drawn)", "hERG current change (%, negative = inhibition) at 1uM": 6.01}, {"smiles": "Cc1ccc(Cn2c(C)nc3c(c2=O)c2nc4ccccc4nc2n3Cc2ccco2)cc1", "hERG current change (%, negative = inhibition) at 1uM": 16}, {"smiles": "O=P(C1=C(N2CCOCC2)/C(=C\\c2ccccc2)CC1)(N1CCOCC1)N1CCOCC1", "hERG current change (%, negative = inhibition) at 1uM": 4.46}, {"smiles": "CC(C)(C)c1csc(NC(=O)Nc2ccccc2)n1", "hERG current change (%, negative = inhibition) at 1uM": 8.1}, {"smiles": "CCOc1cc(C(=O)OCc2cccc(OC)c2OC)ccc1OCC(=O)N1CCOCC1", "hERG current change (%, negative = inhibition) at 1uM": 10.3}, {"smiles": "Cc1ccc2nc(NC(=S)NC(=O)c3ccco3)sc2c1", "hERG current change (%, negative = inhibition) at 1uM": 8.59}, {"smiles": "O=C(O)C1CN(C(=O)c2cccc(Br)c2)C1", "hERG current change (%, negative = inhibition) at 1uM": 19.9}, {"smiles": "Cc1ccc(OCC(=O)N(c2ccccn2)C2CCCCC2)c(C)c1", "hERG current change (%, negative = inhibition) at 1uM": 5.47}, {"smiles": "COc1ccc(S(=O)(=O)N(C)c2ccc(C(=O)N3CCOCC3)cc2)cc1OC", "hERG current change (%, negative = inhibition) at 1uM": 8.49}, {"smiles": "O=C(CN1CCN(Cc2ccc(Cl)cc2)CC1)N/N=C/c1ccccc1F", "hERG current change (%, negative = inhibition) at 1uM": -14.3}, {"smiles": "Cc1cccc2sc(NC(=O)CCNS(=O)(=O)c3cccs3)nc12", "hERG current change (%, negative = inhibition) at 1uM": 3.11}, {"smiles": "CCOc1cc(/C=C2\\N=C(C)OC2=O)cc(Cl)c1OCC(=O)OC", "hERG current change (%, negative = inhibition) at 1uM": 10}, {"smiles": "CC(C)NC(=O)CSc1nccc(-c2cccs2)n1", "hERG current change (%, negative = inhibition) at 1uM": 8.37}, {"smiles": "Cc1cccc(OCC(=O)N(C)c2c(N)n(Cc3ccccc3)c(=O)[nH]c2=O)c1C", "hERG current change (%, negative = inhibition) at 1uM": 12.7}, {"smiles": "CCOc1ccc(C(C)NC(=O)c2ccccc2OCc2c(C)noc2C)cc1OCC", "note": "(stereo not drawn)", "hERG current change (%, negative = inhibition) at 1uM": 1.17}]}]}
